Several values for one entry are separate records, joined by “and”; a condition that tells them apart may be missing. Equal values may be shown once. Inconclusive results, whose numbers are uncertain, are shown with a selection of clear calls. For some of these results: A potency beside an inconclusive call is a rough fit, not a confirmed value. Activity calls are given as the source filed them. Unless noted, the call rests on the fitted dose curve; in most records, active means well fitted curve in the direction sought with a large enough effect; inconclusive means small, poorly fitted or top-dose-only effect, or another doubt; inactive means no such curve, though single readings can be large; an effect the other way counts as inactive or inconclusive.
Columns and labels:
[1] = qHTS of pediatric cancer cell lines to identify multiple opportunities for drug repurposing: Primary screen for BT-12 cells (AID 1347101); further: nearly all actives have a fitted effect of over 25% in size
Procedure, shortened: (§1)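 Cells (500-1,000/well) rested 5 h, then received compounds for 48 h; metabolically active cells were measured by CellTiter-Glo luminescence. Final concentrations spanned up to 46 µM (MIPE, 11-point) or 0.59 nM-46 µM (NPC, 8-point) in primary screens, 11-point in follow-ups.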

[2] = qHTS to identify inhibitors of the type 1 interferon - major histocompatibility complex class I in skeletal muscle: primary screen against the NCATS Pharmaceutical Collection (AID 1347407); details: human skeletal muscle cells, IFN-b-induced MHC-I HiBiT luminescence, 24 h; activity change, negative = inhibition: at 45.9 µM (top of the series);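 further: luminescence of HiBiT knocked into endogenous HLA-B as interferon-induced MHC class I level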
Procedure, shortened: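 HLA-B HiBiT myoblasts, dexamethasone-free growth medium + 4 ng/ml IFN-b; compounds pinned 1 h after seeding, […] from 46 uM; 24 h, 37 C, 5% CO2; lytic HiBiT detection, 10 min RT, luminescence.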

[3] = qHTS to identify inhibitors of the type 1 interferon - major histocompatibility complex class I in skeletal muscle: primary screen against the NCATS Mechanism Interrogation Plate v5.0 (MIPE) Libary (AID 1347411); details: iHSKM cells + IFN-b, HiBiT-tagged MHC-I luminescence, 24 h; activity change, negative = inhibition: at 45.8 µM (top of the series); further: nearly all actives have a fitted effect of over 65% in size
Procedure, shortened: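 Cells were genome-edited human myoblasts carrying a HiBit tag on endogenous HLA-B. They were treated with IFN-beta (4.0 ng/ml) and titrated compounds (top 46 uM) for 24 hrs before lytic HiBiT detection.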

[4] = Primary qHTS for small molecule stabilizers of the endoplasmic reticulum resident proteome: Secreted ER Calcium Modulated Protein (SERCaMP) assay (AID 1508630); details: SH-SY5Y GLuc-SERCaMP (Gaussia luciferase released on ER calcium loss) secretion, thapsigargin, luminescence; activity change, negative = inhibition: at 38.4 µM (top of the series)
Procedure, shortened: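 GLuc-SERCaMP-expressing SH-SY5Y cells, pretreated 16 h with compound, are challenged with thapsigargin to empty ER calcium stores; after 4 h, coelenterazine is added directly to the medium and luminescence is imaged.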

[5] = biological target: Cytochrome P450 2C9 (Homo sapiens) (UniProt P11712); test: Cytochrome P450 family 2 subfamily C member 9 (CYP2C9) small molecule antagonists: luciferase biochemical (cell-free) qHTS assay (AID 1645842; active means well fitted curve in the direction sought with a large enough effect in the repeat runs; inconclusive means weak or mixed curves; inactive means no such curve, though single readings can be large; an effect the other way counts as inactive or inconclusive; further: nearly all actives have a fitted effect of over 55% in size)
UniProt P11712, sequence (P11712 whole entry, looked up): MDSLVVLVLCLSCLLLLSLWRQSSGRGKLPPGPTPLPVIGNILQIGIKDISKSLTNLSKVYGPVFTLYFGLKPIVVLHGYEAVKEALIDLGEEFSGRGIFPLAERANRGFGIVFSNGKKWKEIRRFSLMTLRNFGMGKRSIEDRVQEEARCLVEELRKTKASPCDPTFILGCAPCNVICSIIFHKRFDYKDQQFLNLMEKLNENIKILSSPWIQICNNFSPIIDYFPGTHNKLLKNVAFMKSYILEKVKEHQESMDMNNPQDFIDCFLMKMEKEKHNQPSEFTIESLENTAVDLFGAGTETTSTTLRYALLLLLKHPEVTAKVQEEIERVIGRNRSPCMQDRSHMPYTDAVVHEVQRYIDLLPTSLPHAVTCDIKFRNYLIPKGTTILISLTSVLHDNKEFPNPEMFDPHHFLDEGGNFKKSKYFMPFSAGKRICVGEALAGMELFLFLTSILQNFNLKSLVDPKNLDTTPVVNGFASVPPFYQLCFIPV
Procedure, shortened: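 Luminescence, after 20 min with luciferin detection reagent, reflected CYP2C9 turnover during a 1 h NADPH-driven reaction at 37C. Enzyme-substrate mix contained 0.4% bovine serum albumin and was preincubated with compound 10 min at room temperature.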

[6] = biological target: Phospholipid hydroperoxide glutathione peroxidase GPX4 (Homo sapiens) (UniProt P36969); test: Primary qHTS Assay for Inhibitors of Recombinant Selenoprotein Glutathione Peroxidase 4 (GPX4) (AID 1845192); further: nearly all actives have a fitted effect of over 65% in size
UniProt P36969, sequence (P36969 whole entry, looked up): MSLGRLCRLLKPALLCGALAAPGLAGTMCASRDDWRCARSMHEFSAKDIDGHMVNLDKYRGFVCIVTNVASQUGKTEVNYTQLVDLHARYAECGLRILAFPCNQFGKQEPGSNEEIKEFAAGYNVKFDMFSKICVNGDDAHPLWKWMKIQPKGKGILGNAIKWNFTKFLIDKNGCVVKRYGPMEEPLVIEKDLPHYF
Procedure, shortened: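 NADPH consumption, followed by fluorescence at 340/450 nm between 0 and 15 min, reports GPX4 activity via coupled glutathione reductase (100 nM). Enzyme 200 nM was pre-exposed to compound 30 min; 0.5 mM cumene hydroperoxide and 1 mM GSH served as substrates.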

[7] = test system: UISO; test: qHTS assay to identify novel small-molecules to repurpose for Merkel cell carcinoma treatment (AID 1296009); details: MCC and control cell lines, CellTiter-Glo viability, 72 h; series mostly up to 46 µM; further: nearly all actives have a fitted effect of over 60% in size
Procedure, shortened: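 After compound transfer in DMSO, plates were kept 72 hr at 37 degree celsius. Luminescent ATP signal from CellTiter-Glo served as viability measure, normalized against DMSO and no-cell controls.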

[8] = Drug repurposing screens with cells derived from glioblastoma tumor samples (AID 1345199); details: GBM patient neurospheres viability, ATP luminescence, 48 h; Potency: tumour line A unless noted; series mostly up to 46 µM; further: nearly all actives have a fitted effect of over 40% in size
Procedure, shortened: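 Four patient lines of CD133+ GBM neurospheres were screened at several concentrations; hits were retested in those lines plus three slower-growing GBM lines, using 48-hour treatment and ATP-based viability.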

[9] = qHTS of pediatric cancer cell lines to identify multiple opportunities for drug repurposing: Primary screen for SK-N-MC cells (AID 1347093); details: SK-N-MC viability, CellTiter-Glo luminescence, 48 h; activity change, negative = cytotoxic: at 46 µM (top of the series)
Procedure, shortened: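 Metabolically active cells were quantified by ATP-dependent luminescence (CellTiter-Glo, 15 min at room temperature) following 48 h treatment. Cells had been plated at 500-1,000 per well and settled for 5 h beforehand.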

[10] = qHTS of pediatric cancer cell lines to identify multiple opportunities for drug repurposing: Primary screen for Saos-2 cells (AID 1347097); details: Saos-2 viability, CellTiter-Glo ATP luminescence, 48 h; activity change, negative = cytotoxic: at 46 µM (top of the series); further: nearly all actives have a fitted effect of over 40% in size
Procedure, shortened: (§2)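 Following a 5-hour attachment period, cells at 500-1,000/well received compounds and were cultured for 48 hours. CellTiter-Glo was added and luminescence read to estimate viable, metabolically active cells.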

[11] = qHTS of pediatric cancer cell lines to identify multiple opportunities for drug repurposing: Primary screen for Rh18 cells (AID 1347102); further: nearly all actives have a fitted effect of over 65% in size
Procedure, shortened: as §1

[12] = qHTS of pediatric cancer cell lines to identify multiple opportunities for drug repurposing: Primary screen for OHS-50 cells (AID 1347103); further: nearly all actives have a fitted effect of over 40% in size
Procedure, shortened: as §1

[13] = qHTS of pediatric cancer cell lines to identify multiple opportunities for drug repurposing: Primary screen for RD cells (AID 1347104); further: nearly all actives have a fitted effect of over 55% in size
Procedure, shortened: as §2

[14] = biological target: Calcium and integrin-binding protein 1 (Homo sapiens) (UniProt Q99828); test: Primary qHTS for Identification of Calcium Integrin Binding Protein 1 (CIB1) Competitor (AID 1508620);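 on activity change, negative = inhibition: GST tagged CIB1 binding a fluorescein labelled alphaIIb integrin peptide tracer; top concentration of the series differs between compounds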
UniProt Q99828, sequence (Q99828 whole entry, looked up): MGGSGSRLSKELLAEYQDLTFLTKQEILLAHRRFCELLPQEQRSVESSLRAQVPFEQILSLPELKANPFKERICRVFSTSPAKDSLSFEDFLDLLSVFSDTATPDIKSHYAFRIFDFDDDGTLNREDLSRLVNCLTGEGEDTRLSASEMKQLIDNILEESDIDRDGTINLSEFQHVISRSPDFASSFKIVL
Procedure, shortened: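 CIB1-GST (1 uM final) and compound incubated 15 min at room temperature before adding FITC-alphaIIb peptide tracer (100 nM final). Competition for binding read by fluorescence polarization (ex 480, em 540) after another 15 min at room temperature.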

[15] = Primary redox qHTS assay for identification of artifact compounds. (AID 1845223)
Procedure, shortened: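 Amplex Red (25 uM) and HRP (250 mU/mL) in HBSS, with compounds for 15 min, then 250 uM DTT for 30 min, room temperature, dark. Fluorescence 525/598 nm read; normalized to DMSO and 10 uM DA3003; Hill fit.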

[16] = test system: Zika virus NS2B-NS3 protease (linked construct); test: Primary screen NINDS Rhodamine qHTS for Zika virus inhibitors (AID 1347160); further: nearly all actives have a fitted effect of over 55% in size
Procedure, shortened: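 Kinetic fluorescence (Ex 480 nm, Em 540 nm) over 15 min with 1.5 microM Rhodamine110 peptide and 25 nM linked protease.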

[17] = Primary fluorescence-based thiol-reactive (MSTI) qHTS assay for identification of artifact compounds. (AID 1845221);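 further: thiol-reactive compounds lower the probe fluorescence signal; nearly all actives have a fitted effect of over 65% in size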
Procedure, shortened: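 qHTS titration of compound; 4 uM MSTI, PBS pH 7.4, 2% DMSO; 1 h RT, dark; fluorescence 525/598 nm; normalized to Acetyl-MSTI and MSTI; 4-parameter Hill fit.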

[18] = biological target: Glutathione peroxidase 1 (Homo sapiens) (UniProt P07203); test: Primary qHTS Assay for Inhibitors of Recombinant Selenoprotein Glutathione Peroxidase 1 (GPX1) (AID 1845191); details: activity, negative = inhibition: at 48.8 µM (top of the series); further: nearly all actives have a fitted effect of over 65% in size
UniProt P07203, sequence (P07203 whole entry, looked up): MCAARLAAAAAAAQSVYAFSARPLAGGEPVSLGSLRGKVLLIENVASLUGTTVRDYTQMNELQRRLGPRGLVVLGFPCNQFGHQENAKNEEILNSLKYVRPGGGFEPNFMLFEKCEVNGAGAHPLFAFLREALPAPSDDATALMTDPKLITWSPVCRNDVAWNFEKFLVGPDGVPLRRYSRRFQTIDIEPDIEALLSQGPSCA
Procedure, shortened: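 10 nM GPX1 + cpd, 30 min RT; start w/ 1 mM GSH, 0.5 mM cumene hydroperoxide, 0.5 mM NADPH, 100 nM GR, 0.01% BSA; buffer 50 mM Tris-HCl pH 7.5, 2 mM EDTA, 150 mM NaCl; Fl 340/450, 0 & 15 min.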
Potency means the concentration at half of the fitted maximal effect; tags describe the fitted curve by direction and shape.

With C[C@]12CCC(=O)C=C1[C@@H]1C[C@@H]1[C@H]1[C@@H]3[C@@H]4C[C@@H]4[C@@]4(CCC(=O)O4)[C@@]3(C)CC[C@@H]12 the Potency [1] was inconclusive: 19.5 µM [cytotoxic, single point], the Potency [2] was inconclusive: 23.6 µM [inhibitor, single point] and the Potency [3] was inconclusive: 20.8 µM [inhibitor, partial curve, poor fit]. The Potency [4] was inconclusive: 28.2 µM [inhibitor, single point], the Potency [5] was “inactive and inconclusive: 23.9 µM [inhibitor, single point]” and the Potency [6] was “inactive”. For the same compound, the Potency [7] was inconclusive: 29.9 µM [inhibitor, single point] and the Potency [8] was inconclusive: 28.2 µM [inhibitor, partial curve].

In the case of O=C(Nc1ccc(Oc2ccc(Cl)cc2)c(Cl)c1)c1cc(I)cc(I)c1O, the Potency [9] was inconclusive: 33.5 µM [cytotoxic, single point], the Potency [10] was inconclusive: 23.7 µM [cytotoxic, single point] and the Potency [11] was “inactive”. For the same compound, the Potency [12] was inconclusive: 1.38 µM [cytotoxic, partial curve, poor fit], the Potency [13] was inconclusive: 26.6 µM [cytotoxic, single point] and the Potency [2] was inconclusive: 33.3 µM [inhibitor, single point]. For the same compound, the Potency [14] was inconclusive: 89.1 µM [inhibitor, partial curve, poor fit], the Potency [4] was inconclusive: 3.55 µM [inhibitor, full curve] and the Potency [5] was “inactive”. For the same compound, the Potency [7] was “inactive”.

With C/C=C(\C)C(=O)OC1C(C)C2(O)C(C=C(CO)CC3(O)C(=O)C(C)=CC32)C2C(C)(C)C12OC(C)=O (stereo not drawn) the Potency [15] was inconclusive: 6.53 µM [activator, partial curve].

With NNC(=O)CP(=O)(c1ccccc1)c1ccccc1 the Potency [11] was “inactive” and the Potency [12] was “inactive”.

For CC(C)c1cc2c(N3CCN(C4=NCC(C)(C)S4)CC3)ncnc2s1, the Potency [14] was “inactive”.

With O=C(Nc1ncc([N+](=O)[O-])s1)c1ccccc1O the Potency [16] was active: 22.4 µM, the Potency [14] was inconclusive: 44.7 µM [inhibitor, partial curve, poor fit] and the Potency [6] was inconclusive: 32.1 µM [inhibitor, single point]. For the same compound, the Potency [17] was active: 2.38 µM.

For O=C(Nc1ccc(N2C(=O)[C@@H]3[C@H](C2=O)[C@@H]2C=C[C@H]3C2)c(Cl)c1)c1ccccn1, the Potency [6] was “inactive”.

In the case of Nc1nc(N)c(N=O)c(OCC2CCCCC2)n1, the Potency [1] was inconclusive: 34.3 µM [cytotoxic, partial curve, poor fit], the Potency [11] was active: 18.7 µM and the Potency [12] was active: 15.3 µM. For the same compound, the Potency [13] was inconclusive: 16.6 µM [cytotoxic, partial curve], the Potency [3] was “inactive” and the Potency [4] was inconclusive: 31.6 µM [inhibitor, partial curve, poor fit]. The Potency [18] was inconclusive: 29 µM [inhibitor, single point] and the Potency [7] was inconclusive: 14.8 µM [inhibitor, partial curve].

In the case of OCC(CO)(CO)NCC(O)Cn1c2ccc(Cl)cc2c2cc(Cl)ccc21 (stereo not drawn), the Potency [15] was inconclusive: 7.52 µM [activator, partial curve, poor fit].

In the case of CC[C@@H](C)Nc1cc(C(=O)NC2CC3CCC(C2)N3c2ccc(C(=O)C3CC3)cn2)c(C)cc1C(N)=O (stereo partly drawn), the Potency [3] was inconclusive: 0.147 µM [inhibitor, full curve], the Potency [18] was active: 16.3 µM and the Potency [6] was active: 5.7 µM. For the same compound, the Potency [17] was inconclusive: 2.12 µM [inhibitor, full curve] and the Potency [15] was inconclusive: 2.12 µM [activator, full curve, poor fit].

In the case of C/C=C/[C@@H]1C=C[C@@H]2C[C@H](C)CC[C@H]2[C@]1(C)/C(O)=C1/C(=O)[C@@H](CO)N(C)C1=O, the Potency [17] was inconclusive: 1.04 µM [inhibitor, partial curve] and the Potency [15] was inconclusive: 8.26 µM [activator, partial curve].

From PubChem BioAssay (NCATS)
